Experimental findings from the antibiotic and cytotoxicity screens of Wong et al. (2023) are described below.

Assay [1] deals with HSkMC (human skeletal muscle cells). The experiment in a line: cytotoxicity call (relative viability < 0.9). To be noted: 10 µM.
The test system of assay [2] is HepG2. The experiment in a line: cytotoxicity call (relative viability < 0.9). To be noted: 10 µM.
Assay [3] deals with S. aureus RN4220. The experiment in a line: growth inhibition call (relative growth <= 0.2). To be noted: 50 µM.

Some of the results follow.

For `C[C@H](CO)N1C[C@H](C)[C@@H](CN(C)C)Oc2cc(C#C[C@@H](C)O)ccc2S1(=O)=O`, the cytotoxicity call in assay [1] and in assay [2] was “inactive” each time. Also, the growth inhibition call in assay [3] was “inactive”.

Take `C[C@H]1CN([C@@H](C)CO)C(=O)c2c(c3ccccc3n2C)-c2ccccc2CO[C@H]1CN(C)Cc1ccc(F)cc1`: the cytotoxicity call in assay [1] and in assay [2] was “inactive” throughout. Besides, the growth inhibition call in assay [3] was “inactive”.

Turning to `CC(C)NC(=O)Nc1ccc2c(c1)C(=O)N([C@H](C)CO)C[C@H](C)[C@@H](CN(C)C(=O)Nc1ccc3c(c1)OCO3)O2`, the cytotoxicity call in assay [1] and in assay [2] was “inactive” in each case. Moreover, the growth inhibition call in assay [3] was “inactive”.

As for `OCCC1CCOCC1`, the cytotoxicity call in assay [1] and in assay [2] was “inactive” in each case. The growth inhibition call in assay [3] was “inactive”.

Consider `CNC[C@H]1OCCCC[C@@H](C)Oc2ccc(NC(=O)Nc3ccc(C(F)(F)F)cc3)cc2C(=O)N([C@H](C)CO)C[C@H]1C`, for which the cytotoxicity call in assay [1] and in assay [2] was “inactive” each time. The growth inhibition call in assay [3] was “active”.

With `COCC(=O)N1C[C@@H](C)[C@H](OC)CN(C)C(=O)c2ccc(NC(=O)Nc3cccc(F)c3)cc2OC[C@@H]1C`, the cytotoxicity call in assay [1] and in assay [2] was “inactive” in each case. In assay [3], the growth inhibition call was “inactive”.

Regarding `C[C@H](CO)N1C[C@H](C)[C@H](CN(C)Cc2ccc3c(c2)OCO3)OCCCC[C@H](C)Oc2ccc(NC(=O)C3CCCCC3)cc2C1=O`, the cytotoxicity call in assay [1] and in assay [2] was “inactive” in each case. Moreover, in assay [3], the growth inhibition call was “inactive”.

`C[C@H](CO)N1C[C@H](C)[C@H](CN(C)C(=O)Nc2ccc(C(F)(F)F)cc2)Oc2ccc(NC(=O)CCCCCC(=O)Nc3ccccc3N)cc2CC1=O`: the cytotoxicity call in assay [1] and in assay [2] was “inactive” each time. Further, the growth inhibition call in assay [3] is “inactive”.

For the compound `COc1ccc2c3c(n(c2c1)C)[C@@H](CO)N(C[C@]13CCN(CC1)C(=O)C1CCOCC1)C(=O)C1CCOCC1`, the cytotoxicity call in assay [1] and in assay [2] was “inactive” in each case. Further, the growth inhibition call in assay [3] is “inactive”.

As to `C[C@H](CO)N1C[C@H](C)[C@H](CN(C)C(=O)Nc2ccc(C(F)(F)F)cc2)OCCCC[C@H](C)Oc2ccc(NC(=O)Nc3ccc(C(F)(F)F)cc3)cc2C1=O`, the cytotoxicity call in assay [1] was “active”. Moreover, the cytotoxicity call in assay [2] was “inactive”. For the same compound, the growth inhibition call in assay [3] was “inactive”.

For the compound `CCCNC(=O)N1C[C@H](O)COC[C@@H]2O[C@H](CC(=O)N3CCOCC3)CC[C@H]21`, the cytotoxicity call in assay [1] and in assay [2] was “inactive” throughout. Further, in assay [3], the growth inhibition call was “inactive”.

For `N[C@H]1CC[C@@H](CCn2cc(-c3ccccn3)nn2)O[C@H]1CO`, the cytotoxicity call in assay [1] and in assay [2] was “inactive” throughout. Also, the growth inhibition call in assay [3] was “inactive”.

With `C[C@@H]1CN([C@H](C)CO)C(=O)c2cccc(NC(=O)NC3CCCCC3)c2O[C@H]1CN(C)C(=O)Nc1ccc(C(F)(F)F)cc1`, the cytotoxicity call in assay [1] was “inactive”. Also, the cytotoxicity call in assay [2] is “active”. For the same compound, the growth inhibition call in assay [3] is “inactive”.

As for `C[C@@H]1CCCCO[C@H](CN(C)Cc2ccc(Cl)c(Cl)c2)[C@H](C)CN([C@@H](C)CO)C(=O)c2cc(NC(=O)Nc3ccccc3)ccc2O1`, in assay [1], the cytotoxicity call is “inactive”. Further, in assay [2], the cytotoxicity call is “active”. For the same compound, the growth inhibition call in assay [3] is “inactive”.

As to `C[C@H]1CN([C@@H](C)CO)C(=O)c2cc(NC(=O)CCCCCC(=O)Nc3ccccc3N)ccc2O[C@H]1CN(C)Cc1ccc(-c2ccccc2)cc1`, the cytotoxicity call in assay [1] and in assay [2] was “inactive” throughout. In assay [3], the growth inhibition call was “inactive”.

Consider `CC(C)NC(=O)Nc1ccc2c(c1)CC(=O)N([C@H](C)CO)C[C@@H](C)[C@@H](CN(C)Cc1ccc3c(c1)OCO3)O2`, for which the cytotoxicity call in assay [1] and in assay [2] was “inactive” in each case. Besides, the growth inhibition call in assay [3] was “inactive”.

For `C[C@@H]1CN([C@@H](C)CO)C(=O)Cc2cc(N(C)C)ccc2O[C@@H]1CN(C)S(=O)(=O)c1ccc(F)cc1`, the cytotoxicity call in assay [1] and in assay [2] was “inactive” throughout. Also, the growth inhibition call in assay [3] was “inactive”.

Regarding `COC1(NC(=O)C(C(=O)[O-])c2ccc(O)cc2)C(=O)N2C(C(=O)[O-])=C(CSc3nnnn3C)COC21.[Na+].[Na+]` (stereo not given), the cytotoxicity call in assay [1] and in assay [2] was “inactive” each time. For the same compound, the growth inhibition call in assay [3] was “active”.

With `Cc1ccc(S(=O)(=O)N(C)C[C@H]2Oc3c(NC(=O)Nc4cccc5ccccc45)cccc3C(=O)N([C@H](C)CO)C[C@@H]2C)cc1`, the cytotoxicity call in assay [1] and in assay [2] was “inactive” in each case. Further, in assay [3], the growth inhibition call is “inactive”.

As for `NCCNC(=O)c1ccc(Cl)cn1`, the cytotoxicity call in assay [1] and in assay [2] was “inactive” in each case. The growth inhibition call in assay [3] is “inactive”.

As for `C[C@H]1CN([C@@H](C)CO)C(=O)c2cc(NC(=O)Nc3ccc(C(F)(F)F)cc3)ccc2O[C@H]1CN(C)S(C)(=O)=O`, the cytotoxicity call in assay [1] and in assay [2] was “inactive” each time. Further, in assay [3], the growth inhibition call was “inactive”.

On to `C[C@@H]1CN([C@H](C)CO)C(=O)c2cc(NC(=O)CCCN(C)C)ccc2O[C@@H](C)CCCCO[C@@H]1CN(C)CC1CCCCC1`, for which the cytotoxicity call in assay [1] and in assay [2] was “inactive” each time. Moreover, in assay [3], the growth inhibition call is “inactive”.

On to `C[C@@H]1CCCCO[C@@H](CN(C)C(=O)Nc2ccc(F)cc2)[C@@H](C)CN([C@H](C)CO)C(=O)c2cc(NC(=O)Nc3cccc4ccccc34)ccc2O1`, for which the cytotoxicity call in assay [1] and in assay [2] was “inactive” throughout. Moreover, in assay [3], the growth inhibition call was “inactive”.

As for `COc1ccc(-n2nc(CCC(=O)N(C)O)cc2-c2ccc(Cl)cc2)cc1`, the cytotoxicity call in assay [1] is “inactive”. In addition, in assay [2], the cytotoxicity call is “active”. For the same compound, the growth inhibition call in assay [3] was “inactive”.

On to `C[C@@H]1CN([C@@H](C)CO)S(=O)(=O)c2ccc(Br)cc2O[C@@H]1CN(C)Cc1ccc2c(c1)OCO2`, for which the cytotoxicity call in assay [1] and in assay [2] was “inactive” throughout. Moreover, the growth inhibition call in assay [3] was “inactive”.
